Laboratory results from publication PMC4336329 (PLoS ONE, 2015).
In all, about 310,000 compounds went through this assay and about 14,000 (4.5%) showed an effect of 50% or more. The effect is printed as a negative number. This is one part of the list. Where a SMILES comes first, the peptide text is derived from it. [ ]: non-standard residue; d: D form. NMeY = CN[C@@H](Cc1ccc(O)cc1)C(=O)O; NMeF = CN[C@@H](Cc1ccccc1)C(=O)O; 2Abz = Nc1ccccc1C(=O)O
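Note: peak tail current of the secondary pulse compared with the same well before compound.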

The compounds below were run against human ether-à-go-go-related gene (hERG) potassium channel (human, UniProt Q12809) (assay: primary screen, population patch clamp on CHO cells stably expressing hERG).
Sequence of human ether-à-go-go-related gene (hERG) potassium channel (Q12809 whole entry, looked up): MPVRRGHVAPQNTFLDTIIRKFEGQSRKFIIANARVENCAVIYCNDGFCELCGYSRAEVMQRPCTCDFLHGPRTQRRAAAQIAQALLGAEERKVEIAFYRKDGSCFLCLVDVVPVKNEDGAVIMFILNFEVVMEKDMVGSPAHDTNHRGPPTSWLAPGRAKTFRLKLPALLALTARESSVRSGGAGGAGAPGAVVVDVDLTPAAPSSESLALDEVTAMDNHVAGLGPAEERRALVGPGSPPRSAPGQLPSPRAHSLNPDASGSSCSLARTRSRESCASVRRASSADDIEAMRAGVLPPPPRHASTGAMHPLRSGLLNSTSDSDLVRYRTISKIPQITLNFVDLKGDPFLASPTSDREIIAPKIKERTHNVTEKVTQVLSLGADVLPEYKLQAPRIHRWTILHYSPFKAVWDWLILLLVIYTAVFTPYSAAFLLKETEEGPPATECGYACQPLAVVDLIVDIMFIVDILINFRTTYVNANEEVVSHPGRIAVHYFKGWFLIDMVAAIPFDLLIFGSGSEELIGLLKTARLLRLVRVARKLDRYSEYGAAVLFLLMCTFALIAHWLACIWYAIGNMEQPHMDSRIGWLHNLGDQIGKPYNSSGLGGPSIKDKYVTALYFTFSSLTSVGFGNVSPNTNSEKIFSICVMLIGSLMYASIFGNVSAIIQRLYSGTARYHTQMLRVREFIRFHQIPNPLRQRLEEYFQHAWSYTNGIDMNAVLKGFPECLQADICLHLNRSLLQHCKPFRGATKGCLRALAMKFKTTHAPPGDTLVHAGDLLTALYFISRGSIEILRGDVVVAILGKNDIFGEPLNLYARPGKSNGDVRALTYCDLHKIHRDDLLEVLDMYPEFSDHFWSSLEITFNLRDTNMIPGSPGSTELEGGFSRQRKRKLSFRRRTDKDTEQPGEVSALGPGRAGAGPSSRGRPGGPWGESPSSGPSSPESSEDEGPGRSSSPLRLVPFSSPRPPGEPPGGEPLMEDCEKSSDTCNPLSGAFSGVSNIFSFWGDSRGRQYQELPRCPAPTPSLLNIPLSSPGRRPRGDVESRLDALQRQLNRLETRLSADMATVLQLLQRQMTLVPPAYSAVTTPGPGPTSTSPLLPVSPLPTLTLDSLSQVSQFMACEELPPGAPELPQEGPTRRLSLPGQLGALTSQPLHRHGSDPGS
In the case of `CCOc1cc(-c2ccccc2)nc(N)n1`, the “hERG current change (%, negative = inhibition) at 10uM” value is reported as -6.9%. For `O=C(Nc1ccc2c(c1)OCCO2)N1CCN(c2ccccc2)CC1`, the “hERG current change (%, negative = inhibition) at 10uM” value was -19.1%. With `N#CC1=C2SCC(O)(c3ccccc3)N2C(=O)CC1c1ccccc1` (stereo not shown) the “hERG current change (%, negative = inhibition) at 10uM” value was -20.4%. With `CCCC(=O)N(CC(=O)Nc1sc(C)c(C)c1C(N)=O)Cc1ccccc1` the “hERG current change (%, negative = inhibition) at 10uM” value was -45.4%. `COc1ccc(/C=C(\NC(=O)c2ccccc2)C(=O)NCC2CCCO2)cc1` (stereo not shown) was tested, and the “hERG current change (%, negative = inhibition) at 10uM” value was 2.12%. With `Cn1c(=O)c2c(ncn2Cc2cccc(Cl)c2)n(C)c1=O` the “hERG current change (%, negative = inhibition) at 10uM” value was -4.72%. With `Cc1c(N/C=C/C(=O)C(F)(F)F)c(=O)n(-c2ccccc2)n1C` the “hERG current change (%, negative = inhibition) at 10uM” value was 20.2%. With `Cc1nn(-c2ccccc2)c(C)c1NC(=O)COc1ccc2ccccc2c1` the “hERG current change (%, negative = inhibition) at 10uM” value was -19.9%. In the case of `Fc1ccc(CN2CCCN(Cc3nc(-c4ccc5c(c4)OCO5)no3)CC2)cc1`, the “hERG current change (%, negative = inhibition) at 10uM” value is reported as -62.2%. For `Cc1ccccc1C#N`, the “hERG current change (%, negative = inhibition) at 10uM” value was 16.7%. `Cc1cccc(OCc2nnc(N)s2)c1` was tested, and the “hERG current change (%, negative = inhibition) at 10uM” value was -8.23%. In the case of `CC1CCN(c2c(NCC3CCC(C(=O)NCCc4ccc(Cl)cc4)CC3)c(=O)c2=O)CC1` (stereo not shown), the “hERG current change (%, negative = inhibition) at 10uM” value is reported as -3.81%. For `O=c1cc(CN2CCN(c3ccccc3O)CC2)nc2sccn12`, the “hERG current change (%, negative = inhibition) at 10uM” value was 9.48%. With `CC(NC(=O)c1cccs1)c1ccccc1` (stereo not shown) the “hERG current change (%, negative = inhibition) at 10uM” value was 9.66%. In the case of `COc1cccc(CNC(=O)CS(=O)(=O)Cc2nc(-c3ccc(C)cc3)oc2C)c1OC`, the “hERG current change (%, negative = inhibition) at 10uM” value is reported as -4.74%. `CC1CCC(NC(=O)C(=O)Nc2ccc3c(c2)OCO3)CC1` (stereo not shown) was tested, and the “hERG current change (%, negative = inhibition) at 10uM” value was 26.9%. For `CCOC(=O)[C@H]1[C@H]2COc3ccccc3[C@@H]2N2C(=O)c3ccc(Cl)cc3NC(=O)[C@@]12C`, the “hERG current change (%, negative = inhibition) at 10uM” value was -12.3%. `Cc1ccc(C(=O)NNC(=O)C2CCN(c3nc(C)cc(C)n3)CC2)cc1` was tested, and the “hERG current change (%, negative = inhibition) at 10uM” value was 4.83%. In the case of `Cc1ccccc1OCC(=O)Nc1cc(S(=O)(=O)N2CCCCC2)ccc1N1CCN(C)CC1`, the “hERG current change (%, negative = inhibition) at 10uM” value is reported as -28.3%. In the case of `CC(C)C[C@@H]1NC(=O)[C@H](Cc2ccccc2)N(C)C(=O)[C@H](C)NC(=O)c2ccccc2NC(=O)[C@H](Cc2ccc(O)cc2)N(C)C1=O` (cyclo([2Abz]A[NMeF]L[NMeY])), the “hERG current change (%, negative = inhibition) at 10uM” value is reported as -6.02%. `Cc1ccc(S(=O)(=O)N2CCCOC2CNC(=O)C(=O)NCc2ccc3c(c2)OCO3)cc1` (stereo not shown) was tested, and the “hERG current change (%, negative = inhibition) at 10uM” value was -13.4%. `Cc1ccc(N2C(=O)/C(=C/c3ccc(CN(CCC#N)S(C)(=O)=O)o3)C(=O)NC2=S)cc1C` was tested, and the “hERG current change (%, negative = inhibition) at 10uM” value was 19.9%. For `COc1ccc(C(=O)NC2(C(F)(F)F)N=C3SCCN3C2=O)cc1` (stereo not shown), the “hERG current change (%, negative = inhibition) at 10uM” value was -5.25%. For `Cc1cccc(C)c1NC(=O)CN(C)CC(=O)Nc1ccc(C#N)c(Cl)c1`, the “hERG current change (%, negative = inhibition) at 10uM” value was -30.1%. For `CC1CCCN(c2ccc(C(=O)OCn3nnc4ccccc4c3=O)cc2[N+](=O)[O-])C1` (stereo not shown), the “hERG current change (%, negative = inhibition) at 10uM” value was 7.12%. `Cc1ccc(NC(=O)CCn2nnc3ccccc32)c(C)c1` was tested, and the “hERG current change (%, negative = inhibition) at 10uM” value was 9.21%. For `CCc1cc(C(=O)Nc2ccc(S(=O)(=O)NC3=NCCCCC3)cc2)sc1C`, the “hERG current change (%, negative = inhibition) at 10uM” value was -25.4%. For `CC1CCN(c2nc3c(c(=O)n(C)c(=O)n3C)n2Cc2ccccc2)CC1`, the “hERG current change (%, negative = inhibition) at 10uM” value was -50%. For `Nc1nc(SCc2ccc([N+](=O)[O-])cc2)c2ncn(C3OC(CO)C(O)C3O)c2n1` (stereo not shown), the “hERG current change (%, negative = inhibition) at 10uM” value was 7.33%. In the case of `CCOC(=O)c1ccc(NS(=O)(=O)CC)cc1`, the “hERG current change (%, negative = inhibition) at 10uM” value is reported as 16.2%. For `Cc1ccc(CCNC(=O)C2CC(c3ccccc3[N+](=O)[O-])=NO2)cc1` (stereo not shown), the “hERG current change (%, negative = inhibition) at 10uM” value was -20.7%. In the case of `Cl.O=c1c(-c2ccccc2)coc2c(CN3CCCCC3)c(O)ccc12`, the “hERG current change (%, negative = inhibition) at 10uM” value is reported as 14.6%. For `O=C(COc1ccccc1Br)Nc1ccc(S(=O)(=O)N2CCCC2)cc1`, the “hERG current change (%, negative = inhibition) at 10uM” value was 5.33%. With `CCOC(=O)CNC(=O)CSc1nc(Cc2ccccc2)nc2ccccc12` the “hERG current change (%, negative = inhibition) at 10uM” value was -17.6%. In the case of `O=C(O)C1CC=CCC1C(=O)Nc1cccc(F)c1` (stereo not shown), the “hERG current change (%, negative = inhibition) at 10uM” value is reported as 6.32%. With `CCOc1ccc(S(=O)(=O)NC2CC2)cc1` the “hERG current change (%, negative = inhibition) at 10uM” value was 4.15%. In the case of `CCCCn1c(-c2csc3ccccc23)n[nH]c1=S`, the “hERG current change (%, negative = inhibition) at 10uM” value is reported as 12.8%. `O=C(NCC1CCCO1)c1ccc2c(c1)OCO2` (stereo not shown) was tested, and the “hERG current change (%, negative = inhibition) at 10uM” value was 4.88%. `CCCCS(=O)(=O)N1CCCC(C(=O)Oc2ccccc2)C1` (stereo not shown) was tested, and the “hERG current change (%, negative = inhibition) at 10uM” value was 8.98%. With `Cc1ccc(C(=O)N/N=C\c2cc3c(cc2Br)OCO3)cn1` the “hERG current change (%, negative = inhibition) at 10uM” value was 25.7%. For `Cn1c(=O)c2c(ncn2CC(=O)N/N=C/c2ccc(Br)s2)n(C)c1=O`, the “hERG current change (%, negative = inhibition) at 10uM” value was -20.4%. In the case of `O=C(N/N=C/c1sc(=O)[nH]c1-[n+]1ccc2ccccc2c1)c1ccccc1[O-]`, the “hERG current change (%, negative = inhibition) at 10uM” value is reported as 14.4%. In the case of `COc1ccc(CCn2c(C)cc(C(=O)CCl)c2C)cc1OC`, the “hERG current change (%, negative = inhibition) at 10uM” value is reported as 2.63%. With `CCCCCCC(=O)N/N=C/c1c(O)n(CCCC)c(=S)[nH]c1=O` the “hERG current change (%, negative = inhibition) at 10uM” value was 9.92%. For `Cc1cc(N2CCCCC2)n2ncc(-c3ccc(Cl)cc3)c2n1`, the “hERG current change (%, negative = inhibition) at 10uM” value was 10.9%. In the case of `Cc1ccccc1OCC(=O)Nc1cccc(N(C)S(C)(=O)=O)c1`, the “hERG current change (%, negative = inhibition) at 10uM” value is reported as -0.768%. With `CC(=O)Nc1ccc(NC(=O)Cc2ccc(-c3ccccc3)cc2)cc1` the “hERG current change (%, negative = inhibition) at 10uM” value was 15.7%. For `CC(=O)CSc1ccc(-c2nc3cc(C)c(C)cc3[nH]2)cn1`, the “hERG current change (%, negative = inhibition) at 10uM” value was 22.2%. `O=C(CNc1cccc(S(=O)(=O)N2CCCC2)c1)Nc1ccc(F)cc1F` was tested, and the “hERG current change (%, negative = inhibition) at 10uM” value was -4.58%. In the case of `CCOC(=O)c1cc(-c2ccccc2)nn1CC1CC(c2cccc([N+](=O)[O-])c2)=NO1` (stereo not shown), the “hERG current change (%, negative = inhibition) at 10uM” value is reported as -24.2%. `O=C(COc1ccc(Br)cc1)NCc1cn2ccccc2n1` was tested, and the “hERG current change (%, negative = inhibition) at 10uM” value was -42.7%. `CCOC(=O)Cc1csc(NC(=S)NC(=O)c2ccccc2Br)n1` was tested, and the “hERG current change (%, negative = inhibition) at 10uM” value was -6.16%. For `COCCn1c(C)cc(C(=O)COC(=O)c2ccc3ncsc3c2)c1C`, the “hERG current change (%, negative = inhibition) at 10uM” value was -10.1%. With `CN(C)CCNc1nc2sc3c(c2c(=O)n1CCc1ccccc1)CCCCC3` the “hERG current change (%, negative = inhibition) at 10uM” value was -24.2%. With `O=C(c1csc2c1CCCC2)N1CCN(c2ccc(F)cc2)CC1` the “hERG current change (%, negative = inhibition) at 10uM” value was -33.6%.
